The structures appear in SMILES notation. Like-named read-outs stand apart in the source and are kept apart here. Entries with a single value are a further part of the results.

On to `Cn1c(C#N)ccc1-c1ccc2c(c1)C1(CCCCC1)C(=S)N2.[Na]`, for which the melting point came to 159 °C (choline salt) and 83.4 °C (sodium salt).

Broadly, the melting point is the temperature of the solid-liquid transition.

The record behind these values is patent US8609712B2, “Purification of progesterone receptor modulators” (Wyeth LLC, priority 0205, dated 2013).
